Assay results reported in the RNAGym collection of RNA variant scans (doi:10.1073/pnas.2313332121).
Variants at the background level are over-represented here.

B1: TPR 5TU (parent)
chain: GGAUCUUCUCGAUCUAACAAAAAAGACAAAUCUGCCACAAAGCUUGAGAGCAUCUUCGGAUGCAGAGGCGGCAGCCUUCGGUGGCGCGAUAGCGCCAACGUUCUCAACUAUGACACGCAAAACGCGUGCUCCGUUGAAUGGAGUUUAUCAUG

Variants of: B1
Assay: polymerase ribozyme fitness, log enrichment relative to wild type (log ratio); higher = more active; in vitro selection for triplet polymerase activity
Method in brief: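 A single round of triplicate in vitro selection, including frozen incubation at −7 °C, was applied to PCR-built, transcribed mutant libraries of each subunit of a heterodimeric triplet polymerase ribozyme. Illumina sequencing of input and output libraries retained genotypes with ≥10 input reads and ≥1 read per output. Fitness is the base-2 logarithm of genotype enrichment divided by wild-type enrichment, from inverse-variance-weighted replicate averages.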

Row | Variant | polymerase ribozyme fitness (log ratio)
1 | U4G G11C A40U G50C G83U | ≤ -4.2
2 | U4G G11C U44G | ≤ -4.2
3 | U4G G11U G59A C93U C125U U144C | ≤ -4.2
4 | U4G G48C G70A G81A G83A G124A G136A | ≤ -4.2
5 | U4G G48U G84A C93A G133A G141C | ≤ -4.2
6 | U4G G50C G59U C87U C116A G140U | ≤ -4.2
7 | U4G G58A | 0.794
8 | U4G G58A C85U A115U U144G | -2.13
9 | U4G G68U A73G G88U U139A | ≤ -4.2
10 | U4G G74A G84U U109A | ≤ -4.2
11 | U4G G84A C87U A106C G141A U144G | ≤ -4.2
12 | U4G G84A C96U C108A G143C | ≤ -4.2
13 | U4G G84U A107U G140A | ≤ -4.2
14 | U4G G94A A115U U151G | ≤ -4.2
15 | U4G U6A A17U C87U C93U G126A G136U | ≤ -4.2
16 | U4G U6A A22U A24G C72A A106G C123U U151A | ≤ -4.2
17 | U4G U6G A22C A73G G83C | ≤ -4.2
18 | U4G U6G A29G G88U | ≤ -4.2
19 | U4G U6G C85U G141A | -3.39
20 | U4G U7C A16G C96G | -2.73
21 | U4G U7C A30C C38U A98G | ≤ -4.2

Row | Variant | polymerase ribozyme fitness (log ratio)
22 | U4G U7C A49C C76G A91U | ≤ -4.2
23 | U4G U7G C27U G50A G126C | ≤ -4.2
24 | U4G U9A A22C G83U C95A C116A U151A | ≤ -4.2
25 | U4G U13G C93U A120G G143A U148C | ≤ -4.2
26 | U4G U15A A28U G83U C87U U102G | ≤ -4.2
27 | U4G U31G A49C C51A G94U | ≤ -4.2
28 | U4G U33A C54G U56A C118U A121U G126A | ≤ -4.2
29 | U4G U53C G88A A97C A121U | ≤ -4.2
30 | U4G U55A C93U G136C | ≤ -4.2
31 | U4G U56A A64U G86A C95U A113G C131G U139C A142C | ≤ -4.2
32 | U4G U56A C72A C87G C99U | ≤ -4.2
33 | U4G U77C U102C G124U C125A | ≤ -4.2
34 | U4G U90A G94U C95U C116G C118G C123G | ≤ -4.2
35 | C5A | 0.273
36 | C5A A12G C27U C93U G94C G141A | ≤ -4.2
37 | C5A A12U | 0.264
38 | C5A A12U A21G G80A G84A A91G G124U G140U | ≤ -4.2
39 | C5A A16C C57U G80C A89U C96A C118U U146G A147U | ≤ -4.2
40 | C5A A16C G50A C76U G86C U144G | ≤ -4.2
41 | C5A A16G A24U C27A A41C G68A U77C G124A C125G | ≤ -4.2
42 | C5A A16U C36G C43U U56A G94C C103U C105G C114G A119C | ≤ -4.2

Row | Variant | polymerase ribozyme fitness (log ratio)
43 | C5A A16U G46C G84U A91G U109C A115U G136C | ≤ -4.2
44 | C5A A16U G59U | -1.5
45 | C5A A17C G25U C75A C93U | ≤ -4.2
46 | C5A A17C G88A G117U | -3.46
47 | C5A A17U G83U C87G | ≤ -4.2
48 | C5A A17U U44A A52C C85U G92C G140U U145A | ≤ -4.2
49 | C5A A19C A20U C75A C79G U82A | ≤ -4.2
50 | C5A A19G A24U G88U C108G | ≤ -4.2
51 | C5A A19U A22U C57G C85A G140U | ≤ -4.2
52 | C5A A19U A120U C125U U135C A137C | ≤ -4.2
53 | C5A A20C | 0.413
54 | C5A A20C A30U U31C A40U C95A C96A | ≤ -4.2
55 | C5A A20C A40G A41U A52C G80A G83A C103U A107U | ≤ -4.2
56 | C5A A20C C35A G62A C76A C96G G140A G143C | ≤ -4.2
57 | C5A A20G G48A C57A U61A U78A G88C | ≤ -4.2
58 | C5A A20U C35U A91C U101A C105G U145G | ≤ -4.2
59 | C5A A20U G48C U55A U56G C99U A110G U135A | ≤ -4.2
60 | C5A A20U G67A U77A G81A A97G C118G G140A A142U | ≤ -4.2
61 | C5A A20U G80U C93U U109G | ≤ -4.2
62 | C5A A21C C69A A73C G84U U109C C118A | ≤ -4.2
63 | C5A A21G G46U A52G U56A C93U C95U C108A | ≤ -4.2

Row | Variant | polymerase ribozyme fitness (log ratio)
64 | C5A A21G G88C | -4.09
65 | C5A A21U A28U C93G C96U A110U | ≤ -4.2
66 | C5A A23G A41C G88A U102C U151C | ≤ -4.2
67 | C5A A23G A66C C79A C85G G92U U102A A137G | ≤ -4.2
68 | C5A A23G U33G A66G G83A C87U A113G G124A U127C | -3.78
69 | C5A A23U A52G | ≤ -4.2
70 | C5A A23U C38U G92C A138U U148G | ≤ -4.2
71 | C5A A24C G48U G65C C87U C99U A121G | ≤ -4.2
72 | C5A A24G A47G C75G G92C A138G | ≤ -4.2
73 | C5A A24U A41G A49C U53A C85A | ≤ -4.2
74 | C5A A26G A52G U78A C96U A98U | ≤ -4.2
75 | C5A A26G C27U U33G U53A G88U A89C U109G | ≤ -4.2
76 | C5A A26U A52G G86A G88C A113U G141A | ≤ -4.2
77 | C5A A28C C79A | ≤ -4.2
78 | C5A A28G A29U C51U G92A A120U | ≤ -4.2
79 | C5A A28G C35G A37U C85G C96G C103G U151A | -3.65
80 | C5A A28G G34C G74A U82A G86A C93A A97C | ≤ -4.2
81 | C5A A29C G71A C96G C116U U139C | ≤ -4.2
82 | C5A A29C U53G C95G G136U G143C | ≤ -4.2
83 | C5A A29U G71C A91C C95A C103A U111G A122C G133C G140U | ≤ -4.2
